# Results taken from publication PMC12040169 (PLOS Biology, 2025).
# The other results are listed elsewhere or left out.
# Tested on: T1, C. trachomatis L2/434/Bu expressing GFP (CTL2-GFP)
# T1 construct: L2/434/Bu GFP intracellular growth in HeLa cells
# Set-up: species or system HeLa; C. trachomatis total inclusion area by high-content imaging, normalised to DMSO
# Conditions: total inclusion area; 28.5 h, 10 µM; inhibitor
# Procedure, shortened: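 Following bulk GFP and resorufin fluorescence reads, infected cells were fixed, Hoechst-stained and imaged on a high-content platform. Inclusion total area and number per well served as growth proxies; nuclei counts indicated host viability. MICs were derived as for the fluorescence assay.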
row,SMILES,% of control remaining
1,Cc1cc(CC(=O)N2CCN(CCNC(=O)C3CCCC3)CC2)no1 [CBK306376],84.9755
2,Cc1ccc(S(=O)(=O)NCC2CCC(C(=O)Oc3ccc4ccc(=O)oc4c3)CC2)cc1 (stereo not drawn) [CBK093519],100.51
3,CCC(=O)N1CCCc2cc(C(O)CN3CCC(C)CC3)ccc21 (stereo not drawn) [CBK282144],101.873
4,Nc1cc2c(ncn2[C@@H]2C[C@@H](O)[C@@H](CO)O2)c(=O)[nH]1 [CBK201196],113.274
5,CN1CCN(C(=O)CC[C@@H]2CNC(=O)[C@@H]3C[C@H](NC(=O)c4ccccc4)CN23)CC1 [CBK289014],110.669
6,O=C(Cc1c[nH]c2ccccc12)N1CCC(F)CC1 [CBK200274],76.3066
7,N#Cc1cc(F)cc(F)c1NC(=O)c1cccs1 [CBK066832],97.5161
8,CNC(=O)c1ccc(CN(Cc2noc(C(C)C)n2)C2CC2)cc1 [CBK304084],92.6582
9,O=C(N[C@H]1CCN2C(=O)c3cc(-c4ccccc4)ccc3NC(=O)[C@H]12)c1cccs1 [CBK289350],113.992
10,O=C(Nc1ccc(Br)cc1)c1c(O)n2c3c(cccc3c1=O)CCC2 [CBK291207],95.3931
11,CCOC(=O)c1csc(C2CCCN2C(=O)c2ccsc2)n1 (stereo not drawn) [CBK304125],59.8078
12,Cc1cc(C)n2nc(C(=O)N/N=C/c3ccc(O)cc3)nc2n1 [CBK261765],101.396
13,COc1ccc(S(=O)(=O)NC[C@H]2C[C@@H]3CC[N@]2C[C@@H]3CN2CCOCC2)cc1 [CBK288761],91.8616
14,CN(C)c1cccc(C2CCCN2c2nc3c(cnn3C)c(=O)[nH]2)c1 (stereo not drawn) [CBK305220],51.0674
15,CC(C(=O)Nc1ccc(F)c(F)c1)n1cc([N+](=O)[O-])cn1 (stereo not drawn) [CBK268771],80.9868
16,O=C(O)CCn1oc(=O)c2ccccc21 [CBK020340],3.94
17,c1cncc(-c2nccnc2NCC2CC2)c1 [CBK037310],84.4869
18,CCCc1ccc(S(=O)(=O)Nc2cccc(C(=O)Nc3ccc(F)cc3)c2)cc1 [CBK038978],78.2216
19,Cc1nn(C)c(N2CCNCC2)c1NC(=O)c1cc(-c2ccccc2)oc1C [CBK050356T],81.7112
20,CCOc1ccccc1-c1nnc(SCC(=O)NC2CCCCC2)o1 [CBK268728],63.8402
21,COc1ncc(-c2nccnc2OCCOc2ccccc2)c(OC)n1 [CBK106752],106.719
22,Cc1cn(CC(=O)N2CCC(Cn3cncn3)(C3CCCCC3)CC2)c(=O)[nH]c1=O [CBK136800],91.5814
23,O=C(O)c1cccc(NC(=O)c2cccc(S(=O)(=O)Nc3ccc(Cl)cc3)c2)c1 [CBK261261],95.7875
24,CN1CCN(NC(=O)c2cc(C(=O)c3ccc(Cl)cc3Cl)c[nH]2)CC1 [CBK107420],89.987
25,CN/C(=N\C1CCCCC1)N1CCOCC1 [CBK023800G],88.6359
26,COc1ccc(-c2csc(/C(C#N)=C/Nc3ccc(S(=O)(=O)Nc4nccs4)cc3)n2)cc1 [CBK262374],24.0134

row,SMILES,% of control remaining
1,Cc1onc(-c2ccccc2)c1C(=O)N1CCC1 [CBK160450],74.9605
2,CCOc1ccc(CCC(=O)N2CCCc3c(cnn3C)C2)cc1 [CBK285276],100.17
3,COc1cc(Nc2cc(-c3cccc(N)c3)ncn2)cc(OC)c1OC [CBK037713],103.388
4,COc1ccc(CCN2CCC(Oc3nccnc3OCc3cccnc3)CC2)cc1OC [CBK083179T],69.6851
5,Cc1cc(Cl)ccc1CNS(=O)(=O)c1cccs1 [CBK044714],81.7091
6,O=C(Nc1ccc([C@@H](O)[C@H]2COCC(=O)N2Cc2cccnc2)cc1)c1ccccc1 [CBK289319],119.197
7,Cc1ccnc(NS(=O)(=O)c2ccc(NS(=O)(=O)c3ccc(F)cc3)cc2)n1 [CBK051024],107.798
8,O=C(O)c1ccccc1-c1nc(-c2ccccc2F)no1 [CBK268022],100.704
9,Cc1ccnn1CCC(=O)N1CCCC1c1nc2ccccc2[nH]1 (stereo not drawn) [CBK285178],86.2462
10,O=C(C(Cc1ccccc1)c1ccccc1)N1CCC2(CCN(CCCCOc3ccccc3)C2)C1 (stereo not drawn) [CBK160643],62.8052
11,N#C/C(=C\c1ccc(N2CCN(c3ccc(F)cc3)CC2)c([N+](=O)[O-])c1)c1nn(-c2ccccc2)c(N)c1C#N [CBK267927],96.4735
12,CC(C)c1ccccc1OCC(=O)OCCN1C(=O)c2ccccc2C1=O [CBK264841],111.386
13,CCN(C(C)=O)c1nc(CN2CCOC(c3ccc(F)cc3)C2)cs1 (stereo not drawn) [CBK306213],66.3636
14,C=CCN1C(=O)CC2(C1=O)C(=O)N(Cc1nnc(-c3ccc(C)cc3)o1)c1ccc(Cl)cc12 (stereo not drawn) [CBK075434],113.064
15,CCN(CC)C(=O)CN1CCCN(c2cc(Oc3ccc(OC)c(OC)c3)ncn2)CC1 [CBK083359T],104.634
16,CCOC(=O)c1[nH]c2ccccc2c1NC(C)=O [CBK086755],95.9937
17,CCN(CC)CCNC(=O)/C(=N\O)c1ccccc1 [CBK288408],72.8679
18,O=C(CO)N1CC2(CCN(CCc3cccc4ccccc34)CC2)c2ccccc21 [CBK137003],80.0279
19,CNS(=O)(=O)c1c(C)nn(-c2ccccc2)c1C [CBK086715],70.3246
20,CS(=O)(=O)Nc1ccc2c(ccn2Cc2ccccc2)c1 [CBK159527],80.9199
21,FC(F)(F)C1(NC2(C(Cl)(Cl)Cl)Oc3ccccc3O2)Oc2ccccc2O1 [CBK265544],87.5481
22,CC(C)(C)c1ccc(-c2cc(C3CCNCC3)n[nH]2)cc1 [CBK270240],81.4653
23,CN(C)CCN(C)c1cncc(-c2cccc(/C=C/C(=O)O)c2)n1 [CBK065451],109.774
24,Cc1ccc2c(CSc3nc(N)cc(N)n3)cc(=O)oc2c1C [CBK297519],80.4065
25,Cc1cc(C)c2cc(C(=O)N(C)CC3(C)COC3)[nH]c2c1 [CBK281711],101.243
26,Cc1ccc(-c2nnc(CNC(=O)c3ccc(F)c(F)c3)o2)s1 [CBK284647],120.651

row,SMILES,% of control remaining
1,CC(C)c1nsc(NS(=O)(=O)c2cccc(C(F)(F)F)c2)n1 [CBK038881],90.5977
2,O=[N+]([O-])c1cccc(S(=O)(=O)Nc2ccc(C(O)(C(F)(F)F)C(F)(F)F)cc2)c1 [CBK062093],85.721
3,Cc1cc(C)nc(Nc2ncc(O)n2-c2ccccc2)n1 [CBK287914],94.6171
4,Cc1cnc2[nH]c(C3CCN(C(=O)c4scnc4C)CC3)cc2c1 [CBK284753],107.946
5,CC(=O)c1ccc(CN2CCN(S(=O)(=O)c3ccc(C(F)(F)F)cc3Cl)CC2)cc1 [CBK063072],71.5416
6,CN(C)S(=O)(=O)N1CCN(c2ccc([N+](=O)[O-])c(NC3CC3)c2)CC1 [CBK265158],106.306
7,COc1cc(C(C)=O)ccc1OCCCCN1CCOCC1 [CBK269713C],95.0623
8,Cc1ccc2[nH]cc(CCN3CCC4(C3)OCCc3c4[nH]c4ccccc34)c2c1 (stereo not drawn) [CBK061790],60.7036
9,COc1cc2c(cc1NC(=O)CSc1nc3ccccc3o1)oc1ccccc12 [CBK265154],119.242
10,Cc1ccc(NC(=O)c2cc([N+](=O)[O-])ccc2NCCN2C(=O)c3ccccc3C2=O)cc1 [CBK267159],111.985
11,COc1ccccc1CC(=O)N1CC[C@@H]2NC(=O)[C@H]3C[C@H](NC(=O)C4CC4)CN3C(=O)[C@H]21 [CBK289267],97.6729
12,COc1ccccc1C(=O)Cn1c(=O)n(S(=O)(=O)c2ccccc2)c2ccccc21 [CBK106497],113.126
13,O=C(c1cc2cc(F)ccc2[nH]1)N1CCN(c2ncccn2)CC1 [CBK107280],47.3296
14,N#Cc1cccc(C(=O)N2CCN(c3ncccn3)CC2)c1 [CBK144498],105.563
15,O=C(CC(C(=O)O)n1cncn1)c1ccc(Br)cc1 (stereo not drawn) [CBK269305],88.1432
16,CC(C)NC(=O)Cn1nnc(-c2cccc(C(F)(F)F)c2)n1 [CBK304275],61.1815
17,CCN(CC)CCOc1cc(=O)oc2ccccc12 [CBK022747C],102.874
18,O=C(NC1(c2ccccc2)CC1)c1cccc(-n2cnnc2)c1 [CBK282779],74.0472
19,COc1cc(/C=N/NC(=O)CSc2n[nH]c(=O)[nH]c2=O)ccc1O [CBK263513],72.3111
20,CSc1ncc(C(=O)N2CCC(N3CCCC(O)C3)CC2)cn1 (stereo not drawn) [CBK307055],26.619
21,O=C(Nc1sc2c(c1C(=O)O)CCC2)c1ccco1 [CBK152436],98.5581
22,NCC1CCN(c2cc(C(F)(F)F)c3scc(C(=O)NCCC4=CCCCC4)c3n2)CC1 [CBK028475],46.9159
23,O=C(NC1CCCOC1)c1cc(-c2ccc(F)cc2)no1 (stereo not drawn) [CBK283141],86.6841
24,CN(Cc1nnc(C2CC2)n1C)C1CCN(CCCc2cn[nH]c2)C1 (stereo not drawn) [CBK305305],54.2299
25,CN(CCCc1cc(-c2cccc(F)c2)n[nH]1)C(=O)c1cnn(C)c1 [CBK305745],106.712
26,COc1cccc(C2C(C(=O)c3ccc(Br)cc3)=C(O)C(=O)N2CCN2CCOCC2)c1OC (stereo not drawn) [CBK264855],109.499
